In all, about 360,000 compounds went through this assay and about 7,500 (2.1%) were called active. The inconclusive results got no clear call from the source; some entries with a clear call stand among them for comparison. Calls come from the whole dose curve; as a rule, active = well fitted cell-killing curve with a large enough effect; inconclusive = small, poorly fitted or top-dose-only effect, or effect the other way, or another doubt; inactive = no such curve, though single readings can be large or run the other way. Potencies of inconclusive entries are left out as doubtful fits.
Test: qHTS for induction of synthetic lethality in tumor cells producing 2HG: qHTS for the HT-1080-IDH1KD cell line;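 for activity, negative = toxicity: 0% = DMSO wells and -100% = cell-free medium wells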
Conditions: HT-1080 IDH1 knockdown viability, ATP luminescence, 48 h; activity, negative = toxicity: at 46.1 µM (top of the series) unless noted
Procedure, shortened: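 IDH1KD HT-1080 cells, 750/well, RPMI + 5% FBS; compound pinned after 2 h settling; 48 h, 37 °C; CellTiter-Glo luminescence; % activity normalised to DMSO and no-cell wells; curves fitted, classed by r2 and efficacy.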
For `COC(=O)Cn1c(=O)n(CCc2ccccc2)c(=O)c2c3c(sc21)CCCC3`, the Potency was inconclusive [cytotoxic, single point].
With `Cc1ccc(-n2nc3c(N4CCC(C(=O)NCCc5cccs5)CC4)nnc(C)c3c2C)cc1` the Potency was active: 16.4 µM.
For `CN1CCN(S(=O)(=O)c2ccc(NC(=O)c3csc4ccccc34)cc2)CC1`, the Potency was inconclusive [cytotoxic, single point].
In the case of `Cc1noc(C)c1CSc1nc2[nH]ncc2c(=O)n1-c1ccccc1`, the Potency is reported as active: 0.517 µM.
In the case of `CC1(C(=O)NC2CCCCCC2)CCC(=O)N1Cc1ccc2c(c1)OCO2` (stereo not given), the “activity, negative = toxicity” value is reported as inactive: -0.982%.
In the case of `CCc1cc(C(=O)OC)c(NC(=O)C2CC(=O)NN2Cc2ccccc2)s1` (stereo not given), the “activity, negative = toxicity” value is reported as inactive: -4.18%.
In the case of `CCc1cc2c(=O)c(-c3cnn(-c4ccccc4)c3)c(C)oc2c(CN2CCCCC2)c1O`, the Potency is reported as inconclusive [cytotoxic, single point].
For `Cc1ccc(C2(CCNCc3ccc(N(C)C)cc3)CCOC(C(C)C)C2)cc1` (stereo not given), the Potency was active: 18.4 µM.
With `Cc1ccc(-c2nc(CSCC(=O)NC3CCN(Cc4ccccc4)CC3)c(C)o2)cc1` the Potency was inconclusive [cytotoxic, single point].
In the case of `COCCCNc1ccn2nc(-c3ccc(OCCN4CCOCC4)cc3)cc2n1`, the “activity, negative = toxicity” value is reported as inactive: 21.1%.
With `Cc1cccc(C)c1OCC(=O)Nc1cccc(-c2nnc(-c3ccccc3)o2)c1` the “activity, negative = toxicity” value was inactive: -9.15%.
With `Cc1ccc(C(=O)N/N=C\c2ccc(-c3ccc(Cl)c(Cl)c3)o2)cn1` the Potency was active: 18.4 µM.
With `COc1ccc(C(=O)/C=C/c2cccc(OCc3ccccc3)c2)cc1CSCC(=O)O` the Potency was inconclusive [cytotoxic, partial curve].
In the case of `COc1ccccc1C(NC(=O)C1CCN(CCOc2ccc(Cl)cc2Cl)CC1)c1ccccn1` (stereo not given), the Potency is reported as active: 14.6 µM.
For `CCOC(=O)Nc1nnc(-c2ccc(OC)cc2)s1`, the Potency was inconclusive [rising, full curve, poor fit].
For `Cn1nccc1C(=O)N/N=C/c1c(O)ccc2ccccc12`, the Potency was inconclusive [cytotoxic, full curve].
With `COc1cc(C2c3c(n[nH]c3C)C(=O)N2c2ccc(C)cc2)ccc1O` (stereo not given) the Potency was inconclusive [cytotoxic, single point].
For `Cc1ccc(NC(=O)CSc2nc3ccccc3nc2N2CCCC2)cc1`, the “activity, negative = toxicity” value was inactive: -9.19%.
With `Cc1ccc(C(=O)Nc2sc(Cc3ccc4c(c3)OCO4)c(C)c2C(N)=O)cc1` the Potency was inconclusive [cytotoxic, single point].
With `COc1ccc(C(=O)N/N=C/c2ccc(OC(=O)c3cccc4ccccc34)c([N+](=O)[O-])c2)cc1` the Potency was inconclusive [cytotoxic, single point].
In the case of `CCc1cc2c(=O)[nH]c(-c3ccccn3)nc2s1`, the Potency is reported as inconclusive [cytotoxic, full curve].
For `O=C1C(Cl)=C(NS(=O)(=O)c2ccc([N+](=O)[O-])cc2)C(=O)c2ccccc21`, the Potency was inconclusive [cytotoxic, single point].
With `O=C(CSc1nnc(C23CC4CC(CC(C4)C2)C3)o1)Nc1ccc(N2CCOCC2)c(Cl)c1` the Potency was inconclusive [rising, full curve].
For `CCN1CCN(C(c2ccc(C(F)(F)F)cc2)c2ccc3cccnc3c2O)CC1` (stereo not given), the Potency was inconclusive [cytotoxic, full curve, poor fit].
In the case of `COc1ccc2[nH]c3c(c2c1)CCN1C(=O)C(CC(=O)NC(C)(C)C)C[C@H](C(=O)N2CCOCC2)[C@@]31CCC1CCCC1` (stereo not given in full), the “activity, negative = toxicity” value is reported as inactive: 2.89%.
In the case of `Cc1ccc(OCCCCCCN2CCNCC2)c(Br)c1`, the Potency is reported as active: 14.6 µM.
In the case of `COc1cccc(C=C(C#N)C(=O)c2ccccc2)c1`, the Potency is reported as inconclusive [rising, single point].
With `O=C(N/N=C/c1ccc2c(c1)OCO2)c1cc(-c2ccco2)nc2ccccc12` the Potency was active: 3.66 µM.
With `COc1cccc(C(C)(O)c2nc(-c3cnc4ccccc4c3)cs2)c1` (stereo not given) the Potency was inconclusive [cytotoxic, single point].
For `Cc1ccc(C(=O)Nc2ncc3c(Cl)cccc3n2)cc1`, the Potency was active: 13 µM.
For `COC(=O)c1ccc(N=Cc2c(C(F)(F)F)[nH][nH]c2=O)cc1`, the Potency was inconclusive [cytotoxic, single point].
For `O=C(COC(=O)c1ccc(Cl)nc1)Nc1cccnc1Cl`, the “activity, negative = toxicity” value was inactive: 10.5%.
For `CCOc1ccc(NC(=S)NC(C)CCc2ccccc2)cc1` (stereo not given), the “activity, negative = toxicity” value was inactive: 1.44%.
For `Cc1ccc(NC(=O)c2cc(NC(=O)c3ccco3)ccc2N2CCCCC2)cc1`, the Potency was inconclusive [cytotoxic, single point].
With `COC(=O)[C@@]12C[C@@H](CC(=O)N3CCN(C(=O)c4ccco4)CC3)C(=O)N(Cc3ccco3)C1=CCC(C)(C)C2` the “activity, negative = toxicity” value was inactive: 2.73%.
With `C#CCNC(=O)C[C@@H]1C[C@@]2(C(=O)OC)CCCCC=C2N(CCC2=CCCCC2)C1=O` the “activity, negative = toxicity” value was inactive: -0.863%.
In the case of `CN(C)c1ccc(/C=N\NC(=O)c2ccc(Cn3cc(Cl)cn3)cc2)cc1`, the Potency is reported as inconclusive [cytotoxic, single point].
With `O=C(NCCO)OC1CC2CC1[C@H]1CCCCN1C2=O` (stereo not given in full) the “activity, negative = toxicity” value was inactive: 8.24%.
In the case of `CCc1ccc(Nc2n[n+](-c3ccccc3)c(-c3c(Cl)cccc3Cl)s2)cc1`, the Potency is reported as inconclusive [cytotoxic, single point].
With `COc1ccccc1Cc1c(-c2ccc(OC)c(OC)c2)nc2ccc(Cl)cn12` the Potency was inconclusive [cytotoxic, single point].
In the case of `Cc1cccc(-c2cccc(NC(=O)C3CCCN(C(=O)c4cccnc4)C3)c2)c1` (stereo not given), the “activity, negative = toxicity” value is reported as inactive: -11.6%.
With `CN(CCc1ccccc1)C(=O)c1ccc(NC(=O)Cc2cccc(NC(=O)C3CCN(C(=O)c4ccccc4)CC3)c2)cc1` the “activity, negative = toxicity” value was inactive: -15.4%.
For `O=C(N/N=C/c1cccc(O)c1)c1ccc2c(c1)OCCO2`, the “activity, negative = toxicity” value was inactive: -0.155%.
For `CC(=O)Nc1nonc1-c1nc2ccccc2n1N(C(C)=O)C(C)=O`, the Potency was inconclusive [cytotoxic, single point].
For `CCN(CC)c1ccc(/C=N/OCC(=O)N2CCCc3ccccc32)cc1`, the Potency was inconclusive [cytotoxic, single point].

From PubChem BioAssay AID686971 (National Center for Advancing Translational Sciences (NCATS), 2013)
Potency is the fitted concentration of half-maximal effect; tags give direction and shape of the fitted curve.
